{
  "source": "PubChem BioAssay (Tox21)",
  "note": "Inconclusive results, whose numbers are uncertain, are shown with a selection of clear calls. Potencies of inconclusive entries are left out as doubtful fits. Calls of active or inactive are those of the source. The call rests on the fitted dose curve; in most records, active means well fitted cell-killing curve with a large enough effect in the repeat runs; inconclusive means weak or mixed curves, or effect the other way; inactive means no such curve, though single readings can be large or run the other way. Potency means the concentration at half of the fitted maximal effect; tags describe the fitted curve by direction and shape.",
  "data": [
    {"test": "qHTS assay to identify small molecule antagonists of the sonic hedgehog signaling (Shh) pathway - cell viability counter screen (AID 1259367); further: nearly all actives have a fitted effect of over 55% in size", "conditions": "NIH/3T3 Gli1-Luc viability, CellTiter-Fluor, 24 h; series mostly up to 92.4 µM", "in_short": "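Viability was read by CellTiter-Fluor fluorescence in the same wells, reagent added 23 hr into compound treatment and incubated 1 hr at 37C. The 3T3 Gli1-Luc reporter cells (2,000/well) received conditioned medium after compound and ran 24 hr.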", "values": [
      {"smiles": "Cc1cccc(C)c1NC(=O)CN1CCCC1", "Potency": "inactive"},
      {"smiles": "C=C[Si]1(C)O[Si](C)(C=C)O[Si](C)(C=C)O[Si](C)(C=C)O1", "note": "(centres undefined)", "Potency": "inconclusive [cytotoxic, single point]"},
      {"smiles": "Cc1ccc(C(C)C)cc1", "Potency": "inactive"},
      {"smiles": "ON=C1CCCCC1", "Potency": "inconclusive [cytotoxic, single point]"}
    ]}
  ]
}
